The target in assay [1] is Phenylethanolamine N-methyltransferase (Homo sapiens) (UniProt P11086). Briefly: Confirmatory Screen for Target Class Profiling of Small Molecule Inhibitors of Methyltransferases (AID 1745852).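 Note: inhibitor potency for blocking SAH production.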 The conditions noted are these: MTase-Glo luminescence, SAH detection, recombinant enzyme; measured here: PNMT inhibition potency.
In assay [2] the target is Nicotinamide N-methyltransferase (Homo sapiens) (UniProt P40261). The description is as above. The conditions noted are these: MTase-Glo luminescence, SAH detection, recombinant enzyme; measured here: NNMT inhibition potency.
Sequence of UniProt P40261 (P40261 whole entry, looked up): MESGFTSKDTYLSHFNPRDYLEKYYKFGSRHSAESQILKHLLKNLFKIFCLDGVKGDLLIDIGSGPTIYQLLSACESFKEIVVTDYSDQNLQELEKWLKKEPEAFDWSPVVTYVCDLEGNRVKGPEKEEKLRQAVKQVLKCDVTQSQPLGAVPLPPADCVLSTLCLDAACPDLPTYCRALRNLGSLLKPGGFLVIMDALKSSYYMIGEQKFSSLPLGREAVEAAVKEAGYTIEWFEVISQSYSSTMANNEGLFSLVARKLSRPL
Assay [3] is described as follows: qHTS drug screen for cell cycle checkpoint inhibitors in PARPi-resistant BRCA-mutant ovarian cancer cell lines. (AID 1963452). The conditions noted are these: PEO1/OlaR viability, CellTiter-Glo luminescence, 96 h. The gist of the method: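 PEO1, PEO4 and PEO1/OlaR ovarian cancer cells, 600 per well, exposed 96 h at 37C to a dilution series. Viability read by CellTiter-Glo luminescence, normalized to DMSO and empty wells; activity summarized as Z-AUC.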
(Quantitative high-throughput screening tests each substance at several concentrations.)

The nature of assay [4]: qHTS for identification of novel therapeutic agents for treatment of microphthalmiaassociated transcription factor (MiT) renal cell carcinoma (RCC) (AID 1963991). The conditions noted are these: CellTiter-Glo, 48 h; for z-score: stronger effect = lower value. The gist of the method:
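Viability of three TFE3-fusion renal carcinoma lines measured by CellTiter-Glo after 48 h treatment with each of 1912 compounds at 11 concentrations. Responses scaled between DMSO (100%) and empty wells (0%) before curve fitting.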

A short description of assay [5]: NCATS anti-infectives library activity on the primary C. elegans qHTS viability assay (AID 1745855). The conditions noted are these: C. elegans worm area imaging. The gist of the method:
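Viability read-out is GFP fluorescence of PE254-GFP-FLuc C. elegans, measured by laser cytometry (488 nm) at day 0, 3 and 7. Ten L1 worms per well were incubated 7 days at 21 °C with compounds and bacterial capsules in S medium.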

[6] abbreviates: measured here: PEO1 parental viability.
The mark [7] stands for this setting: day 7, measured here: worm area, day 3.
[8] abbreviates: day 7, measured here: worm number.
The mark [9] stands for this setting: day 7, measured here: worm number, day 3.

The list shows a part of the results. The main result of the screen is listed elsewhere. These columns were measured beside it and carry no call. For part of these data: The list favours compounds with an active or inconclusive main result. Words in brackets tell the shape of the fitted curve; partial curves, single points and poor fits give uncertain potencies.
Tags give direction and shape of the fitted curve.

Sequence of UniProt P11086 (P11086 whole entry, looked up): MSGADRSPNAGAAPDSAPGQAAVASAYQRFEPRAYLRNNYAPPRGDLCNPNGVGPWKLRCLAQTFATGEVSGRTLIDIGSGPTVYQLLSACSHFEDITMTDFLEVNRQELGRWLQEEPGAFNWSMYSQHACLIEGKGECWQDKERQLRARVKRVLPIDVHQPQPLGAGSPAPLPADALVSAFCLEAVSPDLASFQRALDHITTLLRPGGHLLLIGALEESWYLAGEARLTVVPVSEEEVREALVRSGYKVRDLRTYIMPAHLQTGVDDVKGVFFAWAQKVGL

What is called IC50 is the midpoint of a concentration-inhibition curve. As for `CC(=O)Nc1ccc2c(c1)C1C=CCC1C(c1ccccc1F)N2` (stereo not given), the IC50 in assay [1] was 24.1 µM [falling, partial curve, poor fit].

As usually defined, the AC50 is the concentration at which the activity in the assay is half-maximal. Consider `Cc1cc(Nc2nc(N[C@@H](C)c3ccc(F)cc3)c(C#N)cc2F)n[nH]1`, for which the IC50 in assay [2] was 21.5 µM [falling, partial curve]. For the same compound, the AC50 was 0.977 µM [falling, full curve] in assay [3] (setting [6]); 0.871 µM [falling, full curve] in assay [3] (measured here: PEO4 viability); 5.9 µM [falling, partial curve] in assay [4] (TFE3-RCC viability, measured here: UOK124 cell viability); 20.9 µM [falling, partial curve] in assay [4] (TFE3-RCC viability, measured here: UOK145 cell viability). In addition, the z-score in assay [4] (TFE3-RCC UOK109 viability, measured here: UOK109 Z-AUC) is -0.345; in assay [4] (TFE3-RCC viability, measured here: UOK124 Z-AUC) it was -0.613; in assay [4] (TFE3-RCC viability, measured here: UOK145 Z-AUC) it was 0.193.

Consider `Cc1ccsc1CCNC(=O)Cn1c(=O)oc2cc(S(=O)(=O)N3CCCC3)ccc21`, for which the IC50 in assay [1] is 12.1 µM [falling, partial curve].

Take `C=C1CCC2C(C)(CO)C(O)CCC2(C)C1C/C=C1\C=COC1=O` (stereo not given): in assay [5] (setting [7]), the AC50 was 29 µM [rising, single point].

As for `CCCC(CCC)C(N)=O`, the AC50 in assay [5] (setting [7]) is 1.41 µM [falling, partial curve, poor fit].

Regarding `CC(C)CCNC(=O)[C@H](CC(C)C)NC(=O)[C@H]1O[C@@H]1C(=O)O`, the AC50 in assay [5] (setting [7]) is 9.16 µM [falling, partial curve, poor fit].

Take `Nc1ncnc2c1ncn2[C@H]1O[C@@H](C(=O)N2CCN(CC(=O)Nc3cccc4c3CNC4=O)CC2)[C@H](O)[C@@H]1O`: the IC50 in assay [1] was 21.5 µM [falling, partial curve].

As to `CCOc1ccc(-c2ccc(Cn3c(CC(C)(C)C(=O)O)c(SC(C)(C)C)c4cc(OCc5ccc(C)cn5)ccc43)cc2)cn1`, the IC50 in assay [1] was 30.4 µM [falling, single point].

Turning to `COc1cccc([C@H]2Nc3ccc(S(=O)(=O)Nc4ccc(C)cc4C)cc3[C@H]3C=CC[C@H]32)c1`, in assay [1], the IC50 is 27.1 µM [falling, partial curve, poor fit].

Turning to `CC1CC(C)CN(S(=O)(=O)c2ccc3c(c2)oc(=O)n3CC(=O)Nc2cccc(F)c2)C1` (stereo not given), the concentration for half-maximal inhibition (IC50) in assay [1] was 15.2 µM [falling, partial curve].

In the case of `Cc1ccc(-c2ccc3c(c2)C=C(C(=O)Nc2ccc(C[N+](C)(C)C4CCOCC4)cc2)CCC3)cc1`, the AC50 in assay [5] (setting [8]) is 18.3 µM [falling, partial curve, poor fit].

On to `CCN(CC)Cc1ccc(C(=O)N(CCc2ccccc2OC)[C@@H]2CCNC2)cc1`, for which the AC50 in assay [5] (setting [9]) was 36.5 µM [rising, single point].

With `CCOC(=O)c1ccc(NC(=O)Cn2c(=O)oc3cc(S(=O)(=O)N4CCCC4)ccc32)cc1`, the IC50 in assay [1] was 17.1 µM [falling, partial curve].

As for `NS(=O)(=O)OC[C@@H]1C[C@@H](n2ccc3c(N[C@H]4CCc5ccccc54)ncnc32)C[C@@H]1O`, in assay [1], the IC50 was 17.1 µM [falling, partial curve]. Besides, the AC50 in assay [3] (setting [6]) is 0.49 µM [falling, full curve]; in assay [3] (measured here: PEO4 viability), 0.138 µM [falling, full curve].

`CC1=C(C(=O)OC2CCCCC2)C(c2ccc([N+](=O)[O-])cc2)C2=C(CC(C)(C)CC2=O)N1` (stereo not given): the IC50 in assay [1] was 15.2 µM [falling, partial curve].

Consider `COc1c(-c2ccc3cc(NS(C)(=O)=O)ccc3c2)cc(-n2ccc(=O)[nH]c2=O)cc1C(C)(C)C`, for which, in assay [5] (setting [8]), the AC50 was 0.145 µM [falling, single point].

`Cc1cc(OCCN2CCOCC2)nn1-c1ccc2ccccc2c1`: in assay [5] (setting [9]), the AC50 is 4.09 µM [falling, partial curve, poor fit].

On to `O=c1[nH]cnc2ccccc12`, for which, in assay [5] (setting [7]), the AC50 is 29 µM [rising, single point].

Turning to `CCCCCCCCCCCCCCCCOCCCOP(=O)(O)CO[C@H](CO)Cn1ccc(N)nc1=O`, the AC50 in assay [5] (setting [9]) was 3.73 µM [falling, partial curve, poor fit].

Take `C(=N\Nc1nc(Nc2ccccc2)nc(N2CCOCC2)n1)/c1c[nH]c2ccccc12`: the AC50 in assay [5] (setting [8]) was 4.59 µM [falling, partial curve, poor fit].

Take `CN1CCN(C2CCC(n3cc(-c4ccc(Oc5ccccc5)cc4)c4c(N)ncnc43)CC2)CC1` (stereo not given): the IC50 in assay [1] was 17.1 µM [falling, partial curve]. Also, the AC50 in assay [3] (setting [6]) was 0.871 µM [falling, partial curve]; in assay [3] (measured here: PEO4 viability) it was 1.74 µM [falling, full curve].

Take `Cc1cc(CCCOc2c(C)cc(-c3noc(C(F)(F)F)n3)cc2C)on1`: the AC50 in assay [5] (setting [9]) was 1.03 µM [falling, full curve, poor fit].

For `CCOC(=O)C1CCCN(S(=O)(=O)c2ccc3[nH]c(=O)[nH]c3c2)C1` (stereo not given), the IC50 in assay [1] was 21.5 µM [falling, partial curve].

For the compound `CC[C@@H](CO)NCCN[C@@H](CC)CO`, the AC50 in assay [5] (setting [7]) was 18.3 µM [falling, partial curve, poor fit].

`Cc1ccc(S(=O)(=O)OCC(=O)Nc2ccc(C(=O)O)c(O)c2)cc1`: the AC50 in assay [5] (setting [8]) is 18.3 µM [falling, partial curve, poor fit].

As to `O=C(O)[C@H]1O[C@@H](Oc2cc3oc(-c4ccc(O)cc4)cc(=O)c3c(O)c2O)[C@H](O)[C@@H](O)[C@@H]1O`, the AC50 in assay [5] (setting [9]) was 0.365 µM [falling, single point].

As for `COC[C@H]1C[C@@H](c2ncc(-c3ccc4c(c3)COc3cc5c(ccc6[nH]c([C@@H]7CC[C@H](C)N7C(=O)[C@@H](NC(=O)OC)C(C)C)nc65)cc3-4)[nH]2)N(C(=O)[C@H](NC(=O)OC)c2ccccc2)C1`, the AC50 in assay [5] (setting [8]) is 23 µM [falling, single point].

In the case of `C/C(=N\NC(=O)C(NC(=O)c1ccccc1)c1n[nH]c(=O)c2ccccc12)c1cccc(Br)c1` (stereo not given), the AC50 in assay [5] (setting [7]) is 18.3 µM [falling, partial curve, poor fit].

For `CC(=O)c1cc([N+](=O)[O-])c(Sc2ccc(F)cc2F)s1`, the AC50 in assay [5] (setting [9]) was 0.205 µM [falling, partial curve, poor fit].

For `Cc1cc(O)cc(C)c1Cl`, the AC50 in assay [5] (setting [8]) is 29 µM [falling, single point].

Consider `CN[C@H](CC(C)C)C(=O)N[C@H]1C(=O)N[C@@H](CC(N)=O)C(=O)N[C@H]2C(=O)N[C@H]3C(=O)N[C@H](C(=O)N[C@H](C(=O)O)c4cc(O)cc(O)c4-c4cc3ccc4O)[C@H](O[C@H]3C[C@](C)(N)[C@@H](O)[C@H](C)O3)c3ccc(c(Cl)c3)Oc3cc2cc(c3O[C@@H]2O[C@H](CO)[C@@H](O)[C@H](O)[C@H]2O[C@H]2C[C@](C)(NCc3ccc(-c4ccc(Cl)cc4)cc3)[C@@H](O)[C@H](C)O2)Oc2ccc(cc2Cl)[C@H]1O`, for which the AC50 in assay [5] (setting [8]) is 7.27 µM [falling, partial curve, poor fit].

As for `CCc1cccc(NC(=O)Cn2c(=O)oc3cc(S(=O)(=O)N4CCCCC4)ccc32)c1`, in assay [1], the IC50 was 15.2 µM [falling, partial curve].

In the case of `O=C(O)P(=O)(O)O`, the AC50 in assay [5] (setting [9]) was 40.9 µM [rising, single point].

`Cc1cc(NS(=O)(=O)c2ccc3[nH]c(=O)[nH]c3c2)ccc1Br`: in assay [1], the IC50 is 17.1 µM [falling, partial curve].

For `OC[C@H]1O[C@@H](Oc2c(O)cc(O)cc2/C=C/c2ccc(O)cc2)[C@H](O)[C@@H](O)[C@@H]1O`, in assay [5] (setting [8]), the AC50 is 2.3 µM [falling, partial curve, poor fit].

As for `OCc1ccc(Cl)cc1Cl`, the AC50 in assay [5] (setting [7]) was 25.8 µM [rising, single point].

Regarding `CC(=O)Nc1cc(-c2cc(C(=O)NCc3cccnc3)c3c(c2)N(C)CCO3)ccn1`, the IC50 in assay [1] is 44.1 µM [falling, partial curve, poor fit].

Turning to `O=c1cc(-c2ccc(O)cc2)oc2cc(O)c(O)c(O)c12`, the AC50 in assay [5] (setting [9]) was 20.5 µM [rising, partial curve, poor fit].

Turning to `O=C(O[C@@H]1Cc2c(O)cc(O)cc2O[C@@H]1c1cc(O)c(O)c(O)c1)c1cc(O)c(O)c(O)c1`, the AC50 in assay [5] (setting [9]) was 0.0916 µM [rising, full curve, poor fit].

Turning to `O=C(Cc1ccccc1)Nc1nnc(CCSCCc2nnc(NC(=O)Cc3ccccc3)s2)s1`, the AC50 in assay [5] (setting [7]) is 10.3 µM [rising, single point].

In the case of `Cc1cc(N2CCN([C@@H]3CN[C@H](C(=O)N4CCSC4)C3)CC2)n(-c2ccccc2)n1`, the AC50 in assay [5] (setting [7]) is 0.0816 µM [falling, partial curve, poor fit].

With `CC1CC(C)CN(S(=O)(=O)c2ccc3c(c2)oc(=O)n3CC(=O)Nc2ccc(Cl)cc2)C1` (stereo not given), in assay [1], the IC50 was 6.07 µM [falling, partial curve].

For `CC(O)(P(=O)(O)O)P(=O)(O)O`, in assay [5] (setting [9]), the AC50 is 5.92 µM [rising, single point].

Regarding `COC(=O)[C@H]1[C@@H](O)[C@@]2(O)c3c(OC)cc(O[C@@H]4O[C@@H]([C@H](O)CO)CO[C@H]4OC)cc3O[C@@]2(c2ccc(OC)cc2)[C@@H]1c1ccccc1`, the AC50 in assay [5] (setting [7]) is 18.3 µM [falling, partial curve, poor fit].

Take `CC(C)C(=O)OC[C@@]1(N=[N+]=[N-])O[C@@H](n2ccc(N)nc2=O)[C@H](OC(=O)C(C)C)[C@@H]1OC(=O)C(C)C`: the AC50 in assay [5] (setting [9]) was 1.03 µM [falling, full curve, poor fit].

Take `c1ccc(CNCc2ccc(CN3CCCNCCNCCCNCC3)cc2)nc1`: the AC50 in assay [5] (setting [7]) was 20.5 µM [rising, single point].

For the compound `CC1(C)CC[C@]2(C(=O)O)CC[C@]3(C)C(=CC[C@@H]4[C@@]5(C)C[C@@H](O)[C@H](O)C(C)(C)[C@@H]5CC[C@]43C)[C@@H]2C1`, the AC50 in assay [5] (setting [9]) is 6.48 µM [falling, partial curve, poor fit].

For the compound `CC(C)Nc1nc2cc(Cl)c(Cl)cc2n1[C@H]1O[C@@H](CO)[C@H](O)[C@@H]1O`, in assay [5] (setting [9]), the AC50 is 25.8 µM [falling, single point].

Take `O=C(OC1OC2COC(=O)c3cc(O)c(O)c(O)c3-c3c(cc(O)c(O)c3O)C(=O)OC(C2O)C1O)c1cc(O)c(O)c(O)c1` (stereo not given): the AC50 in assay [5] (setting [9]) was 29 µM [rising, single point].

The values are drawn from PubChem BioAssay (NCATS).
